The chains are these.
B1: 59477578_59483500_149_3pUTR_ENSG00000137575_ENST00000447182|human|control|control (ssRNA)
RNA: GGGAGUUCUACAGUCCGACGAUCAAGCUUCUGACAAAAUUGCUGGAUUGGCAGGGUUUGCAGAAAAAGCAGUUUGAGCCUGAAUUACUUUGUCUACCUUCAAGUCUUCGAGAGAUGGAUAGAGAGACAUUUUUGCAGGAUUCUCAACAGAGGAUUGAGCAUCA
B2: chr2:42509997:42509998:+_ENSG00000143924_ENST00000318522|hu_mus|hu_hu_hu_mus_True|28_108 (ssRNA)
RNA: GGGAGUUCUACAGUCCGACGAUCUCGCUGAGUUCUCUCCUCAUAAUUAAACAGGACUACCACUGAGGCGAUAAAAUAAACUAUCUCCCCUGUGGGAAGCAGGUAUACAUUAGCUCUACAGUCCUUUCCUCGAUAACCGUAUACCAACAGAGGAUUGAGCAUCA
B3: 183603010_183603130_2061_3pUTR_ENSG00000218336_ENST00000511685|human|control|control (ssRNA)
RNA: GGGAGUUCUACAGUCCGACGAUCCGUGCAGGAGCCACUUUCUUGAAGAUACGUUCCGUGGCCGGAGCACUGGUCUGGACACAUGGUCUUCAGUAUUUCACAAUUGCUACCUCCCCAUCCUGGACUGCAGUGACAUUCCCCGUGCAACAGAGGAUUGAGCAUCA
B4: chr5:124080617:124080618:-_ENSMUSG00000049550_ENSMUST00000063905|mus_hu|motif|central (ssRNA)
RNA: GGGAGUUCUACAGUCCGACGAUCUUCCAUCUCUUUAGCAUGGGCAGCCCGUUCAGAGUCUUGUUGAUUCUGCAAAUUUUCGGUUUCGUGUUGGUAAUCUAGUCUCAUUUUCUCUAUUUGUGUUUUUAGUUCAGCAAAUUCUGCCAACAGAGGAUUGAGCAUCA
B5: 179016624_179018721_998_CDS_ENSG00000176783_ENST00000393438|human|control|control (ssRNA)
RNA: GGGAGUUCUACAGUCCGACGAUCUUUUAGCUGCUUCCACACAUCACUGUACAUUUCAUCCAGACCUUGCCGAGUUUGCUUGUAAGUCUCCAGCUCAACUUUGGUAUCCUGUUUUGUUAUCUCUACACUCUUUUCACUUCUUUCCAACAGAGGAUUGAGCAUCA
B6: chr2:48026839:48026840:+_ENSG00000116062_ENST00000540021|hu_hu|hu_hu_hu_mus_False|68_98 (ssRNA)
RNA: GGGAGUUCUACAGUCCGACGAUCAUAGUGAGCCACUAGAGUCCUAAAUCUGGAACAGUGGCGGUCAUCUGAAAACUGGCCGAUGAAAAACUUGCCCAGUGAAGUGUCCACAAAGCAAACACCAUACACACGAGUGUGACCAGACAACAGAGGAUUGAGCAUCA
B7: chr2:216983849:216983850:+_ENSG00000079246_ENST00000392132|hu_mus|FALSE|FALSE (ssRNA)
RNA: GGGAGUUCUACAGUCCGACGAUCCUUGUCGAUUGGAAAAGGCAAAAAGAACUGCAGAGAGAUGCCAGACUUCUUCAAGUUACAAAUUAUAACGUCCAGUUGGUCCUGGCUGAACGGGCUGCUGAGGUCAGUGAACACUUCAAUCAACAGAGGAUUGAGCAUCA
B8: chr2:73037555:73037556:-_ENSMUSG00000027108_ENSMUST00000028517|mus_mus|FALSE|FALSE (ssRNA)
RNA: GGGAGUUCUACAGUCCGACGAUCAAAGGCAUUCCCCAAGCCCUGCCCAUUGUGAGCUCCUUUUACAAGGCCAGCAAUAUCCACUACAUUUAGGAAAGCAGGAAUCUUGCUUGCUGGUUUAUGGUACUGGCAAAGAAAGUCGAACAACAGAGGAUUGAGCAUCA
B9: chr3:122261000:122261001:-_ENSMUSG00000039735_ENSMUST00000162409|mus_mus|motif|central (ssRNA)
RNA: GGGAGUUCUACAGUCCGACGAUCGUAAUCUUCAAAUGGAAAGUCUCCUGGAGGUUCAAAGCCAGACUUGAAGGAGUCGGCGGCCAUUUGAGAAUCUCUUCUUUCAUCAACUGAUUUUGCUGCAAGAAUCAUUCCUUCUAAACACAACAGAGGAUUGAGCAUCA
B10: chr10:33214929:33214930:-_ENSG00000150093_ENST00000302278|hu_hu|hu_hu_hu_mus_True|98_98 (ssRNA)
RNA: GGGAGUUCUACAGUCCGACGAUCAACAAGUUCAUUGAAUACUUCUCCUCUGUCAGUAAGACUAAGCACAUUUUUGUAGCUAAAUGGGCUGGUGCAGUUUUGUUCACUUGUACAAGGAUUUCUUAGCUUUGCUGGGGUUGUGCUCAACAGAGGAUUGAGCAUCA
B11: chr18:35748043:35748044:+_ENSMUSG00000037236_ENSMUST00000166793|perfect_dup|motif|central (ssRNA)
RNA: GGGAGUUCUACAGUCCGACGAUCUGUAUAAAAGAGUGAACACAGCUUACAGUAAAACCCUGUUUUAGGUAUCACAUAGUCGGUACCAACAGGAACAUUGGGCUGAUAUGGUCCAAUUCUAUACUCAUCUGGGAUUGUAUAGUCCAACAGAGGAUUGAGCAUCA
B12: chr5:128440902:128440903:+_ENSG00000066583_ENST00000173527|hu_mus|hu_hu_hu_mus_True|1_8 (ssRNA)
RNA: GGGAGUUCUACAGUCCGACGAUCUUGAACGGUGCUGCCAAGUCCUUUGGGGUAUUGUUCCGUUAUGAUAACUGGAAUCCCUAAGAUCCGAGCUCCUUGCAACAGUCUCUGUCCCACACUAAUGAUGUCCCCAAAAUACUUGAUCAACAGAGGAUUGAGCAUCA
B13: chr1:66488090:66488091:+_ENSMUSG00000015222_ENSMUST00000077355|mus_hu|FALSE|FALSE (ssRNA)
RNA: GGGAGUUCUACAGUCCGACGAUCAAGAUUUCAUUCCUAGAUCAGCGUAUGUGUGUCCCCACAAGAGUGGUGCUCAAAAAGCUUAAUUUGAGUCGUUAUCUUGAGAGUGAAGGCAAGAUAGGUUCUACCCCUUAACCCCACAAGCAACAGAGGAUUGAGCAUCA
B14: chr5:56168658:56168659:+_ENSG00000095015_ENST00000399503|hu_hu|FALSE|FALSE (ssRNA)
RNA: GGGAGUUCUACAGUCCGACGAUCUACGGUUUGCUGCUGUGCAGCUCUGAGGGAAGAAGGGGAAUCCACAGGACUUGACAACUCGUGGCUGUAGAAAUCAUGAGAUCUCCACUUAGAUCUACAAAGGGGACAUAUUAAAGGUUCCAACAGAGGAUUGAGCAUCA
B15: chr18:33747085:33747086:+_ENSG00000134759_ENST00000351393|hu_mus|FALSE|FALSE (ssRNA)
RNA: GGGAGUUCUACAGUCCGACGAUCAGACCAAAUGAUUCUACUAUGCACAGAAGUAAUUUUGUUGGUGAAUGCAAAGAGACUAAAAAAUGGAUCAAACUCCGAGGAAGUCGCAUCCUGUCUCUUCCACAAAGACCAGGUUCGAUCCAACAGAGGAUUGAGCAUCA
B16: chr2:73656703:73656704:-_ENSMUSG00000027104_ENSMUST00000100009|mus_mus|motif|central (ssRNA)
RNA: GGGAGUUCUACAGUCCGACGAUCAAGAAAUGGAAGUGGGAAGAGUGAUUCAGUAACACCCCCAUUUAUUAAGAUGCCACGGAAUCAAAGUGAAAUCAACCACAAUGAGUUAUGAUACAAUUUACACAUUGAGCACAGGAAAAUCAACAGAGGAUUGAGCAUCA
B17: chr11:29408400:29408401:+_ENSMUSG00000032740_ENSMUST00000040182|mus_hu|FALSE|FALSE (ssRNA)
RNA: GGGAGUUCUACAGUCCGACGAUCAGUUAAAGCACAACAGCUUUAUCUUGGGAAUGCCAUUUGCUGAAAAACCAUCUUACUAAAAAAAAGUUUCAGAAAAACACUCUUUACCAUGGGUUAACUUAUGAAUGCUUAGUGUUGCUUCAACAGAGGAUUGAGCAUCA
B18: 115647096_115647216_3754_3pUTR_ENSMUSG00000054414_ENSMUST00000067485|mouse|control|control (ssRNA)
RNA: GGGAGUUCUACAGUCCGACGAUCCGGACUGUUCAAGCUGUCCCAGAAGAGGCAACCAUAGCCAGCACCAUGCAGGAGGAAGCAGCAAAUUCUUCACUUCCAAGUAUUAGUUGAAGAACAGUAACCAGAGUGCAUGGCCGUGGGCAACAGAGGAUUGAGCAUCA
B19: chr13:41369065:41369066:+_ENSMUSG00000091264_ENSMUST00000165561|mus_mus|motif|central (ssRNA)
RNA: GGGAGUUCUACAGUCCGACGAUCCUAGAGCACUGGCCAUGCAACAUUUCCAGAAGGGCUGCUCGACACUGCCUUCUGUCGGAUACCAGCAAACAGCUUUGGAUAAAACCUUGGAUGUCUUAAUGGCAGUUCACUCUGUGAUGCCAACAGAGGAUUGAGCAUCA
B20: chr5:38918441:38918442:-_ENSMUSG00000005103_ENSMUST00000005234|mus_hu|FALSE|FALSE (ssRNA)
RNA: GGGAGUUCUACAGUCCGACGAUCGACACGGUGCCGUCAACGCACUAGUUUGUAAACACUGACAGGCAACAGUUAAGAUACAUUAAAAAAAAAGGAAAGAUACCCACAAUUCCAUUCUUAAAAUCAAGCACAAAAUCUGACAAUCAACAGAGGAUUGAGCAUCA
B21: 38435923_38436043_3069_3pUTR_ENSG00000171475_ENST00000323571|human|control|control (ssRNA)
RNA: GGGAGUUCUACAGUCCGACGAUCAAUUUUUAAGCUAAUUUUCCCCAUCCAUUUCAAAGAGUAGCCAUGGUCUCCUUGCUCUCAUGCCACGCUCUGAGCACCCUCUACACAUAGCAACAGUUGUAGAAAACCAAAGCAUCUGGUCAACAGAGGAUUGAGCAUCA
B22: chr6:86333760:86333761:-_ENSG00000135316_ENST00000355238|hu_mus|hu_hu_hu_mus_True|98_98 (ssRNA)
RNA: GGGAGUUCUACAGUCCGACGAUCUUCCUCAAGAAUCUGUUCCUUGGUUUUACUCUUAGGAAUCGAGCCCACAAAAAGCCUAUUGUUGGCAACUGAGAUGCAGACACCAAUGUGCUUCCCGGAACGAAUUUCAUGAUUAUUAUACAACAGAGGAUUGAGCAUCA

The list shows a part of the results.

In this experiment the target is T1, UNK ZnF1-3 (human, UniProt Q9C0B0 31-174).
T1 sequence: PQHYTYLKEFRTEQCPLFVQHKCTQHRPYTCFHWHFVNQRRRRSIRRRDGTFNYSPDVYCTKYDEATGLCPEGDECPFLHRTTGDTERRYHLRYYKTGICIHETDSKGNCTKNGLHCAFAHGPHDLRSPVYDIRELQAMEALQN
The experiment in a line: nsRBNS (natural sequence RNA bind-n-seq); RBNS binding buffer (assumed for nsRBNS): 25 mM Tris pH 7.5, 150 mM KCl, 3 mM MgCl2, 0.01% Triton X-100, 500 ug/ml BSA, 20 U/ml SUPERase-In, 4 C; UNK is unkempt and MSI1 is Musashi-1; names of the RNAs are library labels; protein concentration not given here; high values mean tight binding.
As for B1, the binding signal was found to be 1.09 enrichment R. To B2 belongs 0.884 enrichment R; to B3, 0.639 enrichment R; to B4, 0.386 enrichment R.

Molecule B5 came in with a binding signal of 0.361 enrichment R. To B6 belongs 1.03 enrichment R. To B7 belongs 1.37 enrichment R.

Regarding B8, the binding signal was found to be 1.16 enrichment R. The figure for B9 is 0.719 enrichment R. As for B10, the binding signal was determined as 0.708 enrichment R. The figure for B11 is 0.49 enrichment R; for B12 it is 0.748 enrichment R. B13 registered a binding signal of 0.909 enrichment R. The molecule B14 yielded a binding signal of 0.99 enrichment R. To B15 belongs 1.1 enrichment R. To B16 belongs 1.39 enrichment R; to B17, 0.982 enrichment R.

Molecule B18 registered a binding signal of 1.49 enrichment R. To B19 belongs 1.15 enrichment R. To B20 belongs 2.32 enrichment R.

Take B21: the binding signal is 1.27 enrichment R. To B22 belongs 1.24 enrichment R.

Values taken from publication PMC12136788.
